Results reported in PMC4496341.
Results are given in words; binding and its absence hold for the method and conditions named. Binding seen in cells or lysates may run through a third protein. Some results given as binding are weak or reduced against the parent protein; the word gives no strength.

Sequences of proteins named here, by UniProt entry; tags and fusion partners are left off. A change or cut given only in a name is not applied to a line headed by its entry.
UniProt P30086: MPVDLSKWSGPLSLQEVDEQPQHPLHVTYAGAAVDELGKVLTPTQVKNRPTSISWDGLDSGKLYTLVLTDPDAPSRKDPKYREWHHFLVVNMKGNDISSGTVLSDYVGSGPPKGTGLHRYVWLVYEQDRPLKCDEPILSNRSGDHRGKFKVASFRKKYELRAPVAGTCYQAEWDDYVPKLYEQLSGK
UniProt O95863: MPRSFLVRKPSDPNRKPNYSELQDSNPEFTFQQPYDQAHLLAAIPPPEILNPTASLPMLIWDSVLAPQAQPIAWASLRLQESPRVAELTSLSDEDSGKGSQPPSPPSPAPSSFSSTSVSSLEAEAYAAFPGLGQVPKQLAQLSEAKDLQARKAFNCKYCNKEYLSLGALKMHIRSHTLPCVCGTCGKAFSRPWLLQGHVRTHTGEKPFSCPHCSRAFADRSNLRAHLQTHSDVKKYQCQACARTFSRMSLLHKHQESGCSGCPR
UniProt P35240: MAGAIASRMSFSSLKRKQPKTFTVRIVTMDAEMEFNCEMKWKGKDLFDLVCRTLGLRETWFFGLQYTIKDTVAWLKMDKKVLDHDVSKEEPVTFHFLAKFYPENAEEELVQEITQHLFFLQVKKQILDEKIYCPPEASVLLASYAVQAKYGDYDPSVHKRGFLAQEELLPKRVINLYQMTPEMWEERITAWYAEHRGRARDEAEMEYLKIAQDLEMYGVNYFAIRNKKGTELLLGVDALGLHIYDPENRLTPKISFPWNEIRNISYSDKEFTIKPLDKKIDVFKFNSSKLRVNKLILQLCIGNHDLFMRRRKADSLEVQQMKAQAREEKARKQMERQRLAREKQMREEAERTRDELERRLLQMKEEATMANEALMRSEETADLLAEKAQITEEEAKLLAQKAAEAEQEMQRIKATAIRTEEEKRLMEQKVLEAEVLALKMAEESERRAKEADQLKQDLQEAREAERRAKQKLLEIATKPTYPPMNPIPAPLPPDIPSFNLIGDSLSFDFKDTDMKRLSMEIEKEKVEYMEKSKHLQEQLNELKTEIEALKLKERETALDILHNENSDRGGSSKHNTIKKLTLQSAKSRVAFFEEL

Assays:
[1] = biological target: RKIP in A549 cells (precipitated with RKIP Ab) (human (endogenous in A549)) (UniProt P30086); assay: co-IP; A549 cells incubated with silica for 2 hr and with the proteasome inhibitor ALLN for 4 hr; IP with Snail Ab or RKIP Ab; RIPA buffer
[2] = biological target: Snail in A549 cells (precipitated with Snail Ab) (human (endogenous in A549)) (UniProt O95863); assay: as above
[3] = biological target: Snail of Figure 6F (precipitated by anti-Snail Ab) (UniProt O95863); assay: co-IP; the indicated protein incubated with whole-cell extracts from A549 cells transfected with the indicated vectors in RIPA buffer for 1 hr; co-precipitated by anti-Snail Ab, IgG as control (Figure 6F)
[4] = biological target: Snail of the GST-pull down assays of Figure 6B and 6E (UniProt O95863); assay: pull-down; GST-pull down of Snail and NF2 with increasing RKIP-lysates added (Figure 6E); only the target purified
[5] = biological target: Agarose-conjugated GST-RKIP (UniProt P30086); assay: pull-down; GST-RKIP pull-down of NF2 with increasing Snail lysate added (Figure 6D), same condition as Figure 6A; only the target purified
[6] = biological target: Snail of the GST-pull down assays of Figure 6B and 6E (UniProt O95863); assay: pull-down; GST-pull down of Snail and NF2 (Figure 6B); which partner was on the beads is not stated; methods: RIPA buffer, 1 h, 4°C; only the target purified
[7] = biological target: Agarose-conjugated GST-RKIP (UniProt P30086); assay: pull-down; agarose-conjugated GST-RKIP incubated with NF2, p53 or Snail transfected HEK293 lysate in RIPA buffer for 1 hr (methods: 4°C); Western blot of precipitate and supernatant; only the target purified
[8] = biological target: NF2-FLAG (Isoform 1 of merlin), full length, in transfected HEK293 lysate (UniProt P35240); assay: pull-down; competition in the GST-RKIP pull-down of NF2: increasing Snail lysate against NF2 in lysate (Figure 6D)

binding [3]	binding [6]	binding [7]	Substance	further results
binds	–	–	NF2-FLAG (Isoform 1 of merlin), full length, in extracts of transfected A549 cells (from UniProt P35240 1-595)	–
binds	–	–	NF2-N-TERM-FLAG 1-332 AA, in extracts of transfected A549 cells (from UniProt P35240 1-332) (domain or fragment)	–

Continued, substance first:

Substance	binding [3]	binding [6]	binding [7]	further results
NF2 in A549 cells (from UniProt P35240 1-595)	–	–	–	binding [1]: binds; binding [2]: binds
NF2-FLAG (Isoform 1 of merlin), full length, in transfected HEK293 lysate (from UniProt P35240 1-595)	–	binds	binds	binding [4]: binds; binding [5]: binds
NF2-N-TERM-FLAG 1-332 AA, in transfected HEK293 lysate (from UniProt P35240 1-332) (domain or fragment)	–	binds	binds	–
Snail, in transfected HEK293 lysate (from UniProt O95863 1-264)	–	–	no binding	binding [8]: binds
